Test results published in the supplement of paper PMC9446081.
The campaign covered roughly 39,000 compounds. About 220 (0.56%) showed activity. Some of the results follow.

Test system: Escherichia coli K-12 BW25113
Experiment: relative growth (OD600 normalised to plate interquartile mean) (fraction); higher = less growth inhibition, active = 0.2 or less
Conditions: 50 µM; LB; incubation time: overnight (16-24 h)
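Note: static incubation at 37 °C against the wild-type strain, values averaged over two biological replicates.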

| Compound | relative growth |
| --- | --- |
| CC(=N)NCc1cccc(CN)c1 | inactive: 0.997 |
| C[C@@H]1CCCCO[C@@H](CN(C)C(=O)C2CCCCC2)[C@@H](C)CN([C@H](C)CO)C(=O)c2cc(NC(=O)NC3CCCCC3)ccc2O1 | inactive: 0.987 |
| CC(C)c1cccc(NC(=O)C[C@H]2CC[C@H]3[C@@H](COc4ccc(NS(=O)(=O)c5ccccc5Cl)cc4C(=O)N3C)O2)c1 | inactive: 1.03 |
| C[C@@H]1CN([C@H](C)CO)C(=O)c2cc(NS(=O)(=O)c3cccs3)ccc2O[C@@H]1CN(C)S(=O)(=O)c1ccc(F)cc1 | inactive: 1.01 |
| CCCNC(=O)Nc1ccc2c(c1)OC[C@@H](C)N(Cc1ccc(-c3ccccn3)cc1)C[C@H](C)[C@H](OC)CN(C)C2=O | inactive: 0.996 |
| O=C(C[C@H]1CC[C@H]2[C@@H](COC[C@@H](O)CN2S(=O)(=O)c2ccc(Oc3ccccc3)cc2)O1)NC1CCC1 | inactive: 0.998 |
| Cc1ccccc1S(=O)(=O)N1C[C@H](O)COC[C@H]2O[C@@H](CC(=O)N3CCN(C)CC3)CC[C@@H]21 | inactive: 0.995 |
| CC(C)NC(=O)N(C)C[C@@H]1Oc2ccc(NS(=O)(=O)c3cccs3)cc2CC(=O)N([C@@H](C)CO)C[C@H]1C | inactive: 0.999 |
| CNC[C@H]1Oc2ccc(NS(=O)(=O)c3cn(C)cn3)cc2CC(=O)N([C@@H](C)CO)C[C@H]1C | inactive: 0.984 |
| Cc1cc(C(=O)Nc2cccc3c2O[C@@H](CN(C)C(=O)NC(C)C)[C@@H](C)CN([C@@H](C)CO)C3=O)n(C)n1 | inactive: 1.01 |
| C[C@@H]1CN([C@@H](C)CO)C(=O)c2cc(NS(=O)(=O)c3cccs3)ccc2O[C@@H](C)CCCCO[C@@H]1CN(C)Cc1ccc2c(c1)OCO2 | inactive: 1 |
| COc1ccc(CN(C)C[C@@H]2Oc3ccc(NC(=O)Nc4cccc5ccccc45)cc3CC(=O)N([C@H](C)CO)C[C@H]2C)cc1 | inactive: 0.994 |
| CC(=O)N1CCO[C@H]2CN(S(=O)(=O)c3cccnc3)C[C@@H]2C1 | inactive: 0.994 |
| COc1ccc(S(=O)(=O)N(C)C[C@H]2Oc3c(NC(=O)C4CC4)cccc3C(=O)N([C@@H](C)CO)C[C@@H]2C)cc1 | inactive: 0.993 |
| C[C@H]1CCCCO[C@@H](CN(C)C(=O)NC2CCCCC2)[C@@H](C)CN([C@@H](C)CO)C(=O)c2cc(NS(=O)(=O)c3ccc(F)cc3)ccc2O1 | inactive: 0.999 |
| C[C@H]1CN([C@@H](C)CO)C(=O)c2cccc(NC(=O)c3cnccn3)c2O[C@@H]1CN(C)C(=O)Nc1ccc2c(c1)OCO2 | inactive: 0.976 |
| C[C@@H]1CN([C@H](C)CO)C(=O)Cc2cc(NC(=O)CCN3CCOCC3)ccc2O[C@H]1CN(C)Cc1ccc2c(c1)OCO2 | inactive: 0.994 |
